# Test results from the antibiotic and cytotoxicity screens of Wong et al. (2023).
# The other results are listed elsewhere or left out.
# Key:
# HSkMC = human skeletal muscle cells; assay: cytotoxicity call (relative viability < 0.9); settings: 10 µM
# HepG2 = assay: cytotoxicity call (relative viability < 0.9); settings: 10 µM
# S. aureus RN4220 = assay: growth inhibition call (relative growth <= 0.2); settings: 50 µM
SMILES,cytotoxicity call (HSkMC),cytotoxicity call (HepG2),growth inhibition call (S. aureus RN4220)
O=C(C[C@H]1CC[C@@H]2[C@H](COC[C@@H](O)CN2C(=O)c2cnccn2)O1)N1CCN(c2ccccc2)CC1,inactive,inactive,inactive
CCc1nc2ccc(C(=O)Nc3cc(-c4ccccc4)ccc3OC)cn2c1N(C)C(=O)c1cccc(OC)c1,inactive,inactive,inactive
COc1cccc(S(=O)(=O)N[C@H]2CC[C@H](CCn3cc(-c4ccccc4OC)nn3)O[C@H]2CO)c1,inactive,inactive,inactive
COc1ccc2c3c([nH]c2c1)[C@H](CO)N(C[C@]13CCN(CC1)C(=O)Nc1cccc(c1)F)C(=O)c1ccc(cc1)F,inactive,inactive,inactive
O=C(C[C@H]1C=C[C@@H](NC(=O)C2CCC2)[C@@H](CO)O1)NCCCN1CCOCC1,inactive,inactive,inactive
COCC(=O)N1CC[C@@H](O)[C@@H]1Cc1cnn(C)c1,inactive,inactive,inactive
C[C@H](CO)N1C[C@H](C)[C@@H](CN(C)Cc2ccc(Cl)c(Cl)c2)OCCCC[C@H](C)Oc2ccc(NS(C)(=O)=O)cc2C1=O,inactive,inactive,inactive
O=C(C[C@H]1CC[C@@H]2[C@H](COC[C@H](O)CN2C(=O)Nc2cccc(Cl)c2)O1)NCCCN1CCOCC1,inactive,inactive,inactive
O=C(C[C@@H]1CC=CCCC(=O)OC[C@H](Cc2c[nH]c3ccccc23)NC1=O)N[C@H](CO)Cc1ccccc1,inactive,inactive,inactive
C[C@@H]1CN([C@H](C)CO)C(=O)Cc2cc(NC(=O)c3ccncc3)ccc2O[C@@H]1CN(C)S(C)(=O)=O,inactive,inactive,inactive
Oc1ccc(Oc2ccccc2)cc1,inactive,inactive,inactive
Cc1ccc(S[C@]2(C(=O)NCC(C)C)CC(=O)N(Cc3ccccc3)[C@@H]2c2ccc(CO)cc2)cc1,inactive,inactive,inactive
Cc1noc(C)c1NC(=O)Nc1ccc2c(c1)C(=O)N([C@H](C)CO)C[C@H](C)[C@H](CN(C)S(=O)(=O)c1ccccc1)O2,inactive,inactive,inactive
CC(C)OC(=O)c1nnc(N)[nH]1,inactive,inactive,inactive
C[C@H]1CN([C@@H](C)CO)C(=O)Cc2cc(NS(C)(=O)=O)ccc2O[C@@H]1CN(C)Cc1ccc(C(F)(F)F)cc1,inactive,inactive,inactive
C[C@@H]1CN([C@@H](C)CO)C(=O)c2cc(NC(=O)CCC(F)(F)F)ccc2O[C@@H](C)CCCCO[C@@H]1CN(C)Cc1ccc(C(=O)O)cc1,inactive,inactive,inactive
Cc1ccccc1N1CCN(S(=O)(=O)C[C@]23CC[C@H](C[C@@H]2NC(=O)[C@@H](N)CCS(C)(=O)=O)C3(C)C)CC1,inactive,inactive,inactive
C[C@@H]1CCCCO[C@H](CN(C)C(=O)C2CCCCC2)[C@@H](C)CN([C@@H](C)CO)C(=O)c2cc(NC(=O)Nc3cccc4ccccc34)ccc2O1,inactive,inactive,inactive
O=C1c2c(O)cccc2Cc2cccc(O)c21,inactive,inactive,inactive
Cc1ccc2nc(SCc3c(C)c(C)cc(C)c3C)[nH]c2c1,inactive,inactive,inactive
C[C@H]1CN([C@@H](C)CO)C(=O)c2cccc(NC(=O)CCCCCC(=O)Nc3ccccc3N)c2O[C@@H]1CN(C)Cc1ccc(-c2ccccc2)cc1,active,inactive,inactive
C[C@@H]1CCCCO[C@H](CN(C)C(=O)CCC(F)(F)F)[C@H](C)CN([C@@H](C)CO)C(=O)c2cc(NC(=O)Cc3ccccc3)ccc2O1,inactive,inactive,inactive
Cn1c(=O)c2c(nc3n2CC=NN3)n(C)c1=O,inactive,inactive,inactive
C[C@H]1CN([C@@H](C)CO)C(=O)Cc2cc(NC(=O)Nc3ccc(Cl)c(Cl)c3)ccc2O[C@H]1CN(C)S(=O)(=O)c1ccc(Oc2ccccc2)cc1,inactive,inactive,inactive
C[C@@H]1CCCCO[C@H](CN(C)C(=O)Nc2ccc(F)cc2)[C@H](C)CN([C@@H](C)CO)C(=O)c2cc(NC(=O)Nc3ccccc3)ccc2O1,inactive,inactive,inactive
COCC#Cc1cnc2c(c1)C(=O)N([C@H](C)CO)C[C@@H](C)[C@H](CN(C)C(=O)Nc1ccccc1OC)O2,inactive,inactive,inactive
O=C(C[C@@H]1CC[C@@H]2[C@H](COC[C@H](O)CN2C(=O)Nc2cccc(F)c2)O1)NCc1ccccc1Cl,inactive,inactive,inactive
